Measurements reported in PubChem BioAssay (NCATS).
This list was built around the results that the source calls inconclusive (neither active nor inactive); the mix of calls is not that of the screen. For some of these results: Potencies of inconclusive entries are left out as doubtful fits. For some of these results: “Side channel” marks fits to a control or component signal instead of the main read-out. The source made the active and inactive calls. Unless noted, the call rests on the fitted dose curve; in most records, active means well fitted curve in the direction sought with a large enough effect; inconclusive means small, poorly fitted or top-dose-only effect, or another doubt; inactive means no such curve, though single readings can be large; an effect the other way counts as inactive or inconclusive.

Tests used:
[1] = target: Estrogen receptor (Homo sapiens) (UniProt P03372); test: qHTS assay for small molecule antagonists of estrogen receptor alpha signaling (AID 588513; active means well fitted curve in the direction sought with a large enough effect in the signal ratio, with a control signal flat, not every such curve was filed as active; inconclusive means small, poorly fitted or top-dose-only effect, or effect the other way, or a change in a side signal; inactive means no such curve, though single readings can be large or run the other way; the % refers to the signal ratio; further: potency means the concentration at half of the fitted maximal effect); conditions: ER-alpha-UAS-bla HEK293, beta-lactamase ratio, antagonist mode; activity, negative = inhibition: at 76.9 µM (top of the series) unless noted
In short: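 ER-alpha-UAS-bla GripTite HEK 293 cells in medium with 2% charcoal/dextran-treated FBS were preincubated 4 h at 37 C, dosed with compound (1:2 titration), stimulated with 0.5nM 17-beta-estradiol for 18 h, then read by CCF4 beta-lactamase fluorescence.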

[2] = target: Estrogen receptor (Homo sapiens) (UniProt P03372); test: qHTS assay for small molecule agonists of estrogen receptor alpha signaling (AID 588514; calls by dose curve; further: nearly all actives have a fitted effect of over 70% in size; further: potency means the concentration at half of the fitted maximal effect;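 on activation: 0% = vehicle only and 100% = reference agonist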); conditions: ER-alpha-UAS-bla HEK293, beta-lactamase ratio, 18 h; activation: at 76.8 µM (top of the series), percent of full estradiol response, vehicle zero unless noted
In short: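 Cells were plated at 5000/well, incubated 4 hrs at 37 C, dosed with compound titration series, incubated 18 hrs at 37 C, loaded with CCF4 dye for 2 hrs at RT, then fluorescence was read.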

[3] = target: Glucocorticoid receptor (Homo sapiens) (UniProt P04150); test: qHTS assay for small molecule antagonists of glucocorticoid receptor signaling (AID 588533; active means well fitted inhibition curve with a large enough effect in the signal ratio, with a control signal flat, not every such curve was filed as active; inconclusive means small, poorly fitted or top-dose-only effect, or effect the other way, or a change in a side signal; the % refers to the signal ratio;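 further: cells stimulated with 2 nM dexamethasone as agonist; on the % scale 0 is the no-effect control and ±100 the full control effect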); conditions: HeLa MMTV-bla, GRE beta-lactamase ratio, antagonist mode, 18 h; activity change, negative = inhibition: at 76.8 µM (top of the series)
[4] = target: Peroxisome proliferator-activated receptor delta (Homo sapiens) (UniProt Q03181); test: qHTS assay for small molecule antagonists of peroxisome proliferator-activated receptor delta signaling (AID 588535; active means well fitted inhibition curve with a large enough effect in the signal ratio, with a control signal flat, not every such curve was filed as active; inconclusive means small, poorly fitted or top-dose-only effect, or effect the other way, or a change in a side signal; inactive means no such curve, though single readings can be large or run the other way; the % refers to the signal ratio; further: potency means the concentration at half of the fitted maximal effect); conditions: HEK293T PPARd-UAS-bla, beta-lactamase FRET ratio, 18 h; activity change, negative = inhibition: at 76.7 µM (top of the series) unless noted
In short: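 HEK293T PPAR-delta-UAS-bla cells, 4000/well, 2% charcoal/dextran FBS; 5 h 37 C; cpd titration; 18 h 37 C; CCF4 2 h RT; FI 460/530 nm; Hill fit → IC50, efficacy.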

[5] = target: Peroxisome proliferator-activated receptor gamma (Homo sapiens) (UniProt P37231); test: qHTS assay for small molecule agonists of peroxisome proliferator-activated receptor gamma signaling (AID 588536; active means well fitted curve in the direction sought with a large enough effect in the signal ratio, with a control signal flat, not every such curve was filed as active; inconclusive means small, poorly fitted or top-dose-only effect, or effect the other way, or a change in a side signal; inactive means no such curve, though single readings can be large or run the other way; the % refers to the signal ratio; further: potency means the concentration at half of the fitted maximal effect;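 on activation: 0% = DMSO basal wells and 100% = rosiglitazone at 2 µM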); conditions: HEK293 PPARg-UAS-bla, beta-lactamase ratio, 16 h; activation: at 76.7 µM (top of the series), percent of rosiglitazone response, DMSO as zero
In short: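 GeneBLAzer PPAR-gamma-UAS-bla HEK293 cells in 1% charcoal/dextran-treated FBS medium were treated 16 h at 37 C with compounds. Beta-lactamase activity was read by CCF4 ratio (460/530 nm). Response was normalized to 2 uM rosiglitazone (100%) and DMSO, then Hill-fitted for EC50 and efficacy.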

[6] = target: Peroxisome proliferator-activated receptor gamma (Homo sapiens) (UniProt P37231); test: qHTS assay for small molecule antagonists of peroxisome proliferator-activated receptor gamma signaling (AID 588537; active means well fitted inhibition curve with a large enough effect in the signal ratio, with a control signal flat, not every such curve was filed as active; inconclusive means small, poorly fitted or top-dose-only effect, or effect the other way, or a change in a side signal; the % refers to the signal ratio; further: potency means the concentration at half of the fitted maximal effect;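 further: reporter cells co-stimulated with 50 nM rosiglitazone agonist during compound treatment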; on activity, negative = inhibition: % of control where 0% means no effect); conditions: HEK293 PPARg-UAS-bla, beta-lactamase ratio, antagonist mode
In short: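 Antagonist mode, beta-lactamase reporter in HEK293; charcoal/dextran FBS 1%; 3000 cells/well, 37 C 6-6.5 h; cpd titration + rosiglitazone 50 nM final, 16 h 37 C; CCF4, 2 h RT; 460/530 nm; Hill fit → IC50, efficacy.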

[7] = target: Ubiquitin carboxyl-terminal hydrolase 1 (Homo sapiens) (UniProt O94782); test: Inhibitors of USP1/UAF1: Pilot qHTS (AID 504865); conditions: purified USP1/UAF1, Ub-rhodamine cleavage fluorescence; series mostly up to 114 µM; further: potency means the concentration at half of the fitted maximal effect;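 further: rhodamine fluorescence freed from ubiquitin-rhodamine substrate followed over time; nearly all actives have a fitted effect of over 35% in size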; on activity change, negative = inhibition: top concentration of the series differs between compounds; on the % scale 0 is the no-effect control and ±100 the full control effect
In short: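 USP1/UAF1 complex (1nM) preincubated with compound 15 min at room temperature, then Ub-Rho substrate (150nM final) added. Fluorescence read kinetically at 480/540 nm, 6 reads every 60 seconds. Buffer: 50mM HEPES pH 7.8, 0.5mM EDTA, 0.1 mg/ml BSA, 1mM TCEP, 0.01% Tween-20.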

[8] = qHTS for Inhibitors of ATXN expression: Validation of Cytotoxic Assay (AID 588349); conditions: cytotoxicity counter-screen for ATXN expression inhibitors, cell viability; series mostly up to 57.1 µM; further: potency means the concentration at half of the fitted maximal effect
In short: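 Read-out: ATP-based luminescence (CellTiter Glo) reflecting viability of HEK293 cells after 72 hr incubation at 37 degrees C with a concentration series of each compound.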

[9] = qHTS for Inhibitors of ATXN expression: Validation (AID 588378); conditions: cell-based ATXN2 expression reporter assay, luminescence; series mostly up to 57.1 µM; further: potency means the concentration at half of the fitted maximal effect; nearly all actives have a fitted effect of over 75% in size
In short: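 Luminescence from an ATXN2-FFLuc reporter in HEK293 cells served as read-out after 24 h compound treatment at 37 degrees C; CellTiter-Fluor fluorescence was recorded first to assess viability.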

[10] = activity, negative = inhibition: at 76.8 µM (top of the series)
Tags describe the fitted curve by direction and shape or compound fluorescence and quenching.

Chain of UniProt P03372 (P03372 whole entry, looked up): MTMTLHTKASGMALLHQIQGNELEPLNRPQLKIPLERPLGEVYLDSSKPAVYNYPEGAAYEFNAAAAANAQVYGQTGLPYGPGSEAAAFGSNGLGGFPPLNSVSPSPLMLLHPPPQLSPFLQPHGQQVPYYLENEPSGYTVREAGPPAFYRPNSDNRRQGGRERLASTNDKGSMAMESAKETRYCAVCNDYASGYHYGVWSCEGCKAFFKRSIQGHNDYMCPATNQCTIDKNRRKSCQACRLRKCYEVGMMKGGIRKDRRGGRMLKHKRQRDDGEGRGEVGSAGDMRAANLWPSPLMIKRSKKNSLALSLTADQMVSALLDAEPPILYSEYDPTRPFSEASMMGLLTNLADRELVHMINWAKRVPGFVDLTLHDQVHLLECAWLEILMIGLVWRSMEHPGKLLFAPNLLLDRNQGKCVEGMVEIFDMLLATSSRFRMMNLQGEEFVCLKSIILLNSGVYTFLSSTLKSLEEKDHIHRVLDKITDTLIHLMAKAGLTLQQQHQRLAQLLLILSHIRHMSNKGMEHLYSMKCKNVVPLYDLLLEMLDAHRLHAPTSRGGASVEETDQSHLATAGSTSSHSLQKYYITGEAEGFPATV
Chain of UniProt Q03181 (Q03181 whole entry, looked up): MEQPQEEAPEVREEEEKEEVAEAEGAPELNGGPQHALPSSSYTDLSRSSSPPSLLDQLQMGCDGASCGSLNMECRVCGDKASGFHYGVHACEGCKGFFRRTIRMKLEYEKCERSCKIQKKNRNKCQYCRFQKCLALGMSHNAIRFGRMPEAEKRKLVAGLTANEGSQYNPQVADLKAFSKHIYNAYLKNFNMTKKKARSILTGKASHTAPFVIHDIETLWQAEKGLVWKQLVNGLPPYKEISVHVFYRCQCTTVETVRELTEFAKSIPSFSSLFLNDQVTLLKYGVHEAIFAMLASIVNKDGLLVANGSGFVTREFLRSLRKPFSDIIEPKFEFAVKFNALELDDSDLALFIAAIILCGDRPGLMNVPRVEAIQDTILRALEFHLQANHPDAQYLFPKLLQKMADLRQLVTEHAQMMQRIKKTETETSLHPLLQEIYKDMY
Chain of UniProt O94782 (O94782 whole entry, looked up): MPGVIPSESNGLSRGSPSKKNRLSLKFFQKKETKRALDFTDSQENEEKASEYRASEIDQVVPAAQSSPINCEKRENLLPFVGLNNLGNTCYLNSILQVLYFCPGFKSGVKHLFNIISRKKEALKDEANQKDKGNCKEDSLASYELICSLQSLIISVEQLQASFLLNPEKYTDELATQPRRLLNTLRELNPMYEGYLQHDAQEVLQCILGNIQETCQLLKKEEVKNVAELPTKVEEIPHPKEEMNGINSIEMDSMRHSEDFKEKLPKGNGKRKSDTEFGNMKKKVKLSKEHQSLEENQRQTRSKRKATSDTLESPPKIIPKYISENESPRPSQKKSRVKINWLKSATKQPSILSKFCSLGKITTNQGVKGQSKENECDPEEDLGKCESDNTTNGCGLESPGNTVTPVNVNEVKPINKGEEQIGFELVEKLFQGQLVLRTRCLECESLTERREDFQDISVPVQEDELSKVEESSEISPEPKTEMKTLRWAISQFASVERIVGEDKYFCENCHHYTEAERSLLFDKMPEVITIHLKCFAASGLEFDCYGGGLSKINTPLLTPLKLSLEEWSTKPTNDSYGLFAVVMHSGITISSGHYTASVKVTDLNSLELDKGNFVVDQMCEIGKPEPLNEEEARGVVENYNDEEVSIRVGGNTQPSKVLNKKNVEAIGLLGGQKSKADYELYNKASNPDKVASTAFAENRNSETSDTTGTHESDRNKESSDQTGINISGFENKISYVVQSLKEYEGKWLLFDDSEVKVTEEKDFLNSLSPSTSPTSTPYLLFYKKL

C[C@]12C/C(=C/O)C(=O)C[C@@H]1CC[C@@H]1[C@@H]2CC[C@@]2(C)[C@H]1CC[C@]2(C)O
Potency [1]: inconclusive [fluorescent, side channel, partial curve, poor fit]
Potency [2]: active: 0.562 µM
activity change, negative = inhibition [3]: inconclusive: -5.89%
Potency [4]: inconclusive [fluorescent, side channel, partial curve, poor fit]
Potency [5]: inconclusive [side channel, rising, single point]
Potency [6, 10]: inconclusive [fluorescent, side channel, single point]

Oc1cc(Cl)c(Cl)cc1Cl
Potency [7]: inactive
Potency [6, 10]: inconclusive [inhibitor, single point]

CCCCCCCCCC(CC)c1ccc(S(=O)(=O)O)cc1 (stereo not given)
Potency [7]: active: 79.4 µM
Potency [3]: inactive
Potency [4]: inactive
Potency [5]: inactive
activity, negative = inhibition [6, 10]: inconclusive: -2.24%
activity, negative = inhibition ([6]; at 76.8 µM (top of the series)): inactive: 3.88%

O=P1(N(CCCl)CCCl)NCCCO1 (stereo not given)
Potency [8]: inactive
Potency [2]: inactive
Potency [4]: inactive
activity, negative = inhibition [6, 10]: inconclusive: 14%
activity, negative = inhibition ([6]; at 76.8 µM (top of the series)): inactive: 16.6%

C[C@H]1CCC[C@H](O)CCCCCc2cc(O)cc(O)c2C(=O)O1
Potency [1]: inconclusive [falling, partial curve, poor fit]
Potency [2]: active: 0.141 µM
activity change, negative = inhibition [3]: inconclusive: -7.29%
activity change, negative = inhibition [4]: inconclusive: -31.1%

COC[C@H]1OC(=O)c2coc3c2[C@@]1(C)C1=C(C3=O)C2CCC(=O)[C@@]2(C)C[C@H]1OC(C)=O (stereo not given in full)
Potency [8]: inconclusive [cytotoxic, single point]
Potency [9]: inconclusive [inhibitor, single point]
